Laboratory results as given in PubChem BioAssay AID485297 (National Center for Advancing Translational Sciences (NCATS), 2010).
Among all 320,000 compounds or so, about 9,100 (2.8%) were called active. Inconclusive results, whose numbers are uncertain, are shown with a selection of clear calls. Calls follow the shape of the dose curve; as a rule, active = well fitted activation curve with a large enough effect; inconclusive = small, poorly fitted or top-dose-only effect; inactive = no such curve, though single readings can be large or run the other way. No potency is given beside an inconclusive call; the fits are too rough.

experiment: qHTS Assay for Rab9 Promoter Activators; conditions: Huh7 Rab9 promoter-luciferase reporter, luminescence, 24 h; series mostly up to 9.22 µM; also: nearly all actives have a fitted effect of over 60% in size
Summary of the method: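 Stable Rab9-luc Huh7, 1500 cells/well, 2 h settle; cmpd in DMSO, 24 h, 37 °C/5% CO2; luciferase reagent 10 min RT; luminescence.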
Potency is read from the fitted curve at half-maximal effect; tags tell the direction and shape of the fitted curve.

Structure (SMILES) | Potency
COC(=O)C1CCN(C(=O)CN2C(=O)c3ccccc3S2(=O)=O)CC1 | inconclusive [activator, partial curve]
CCC(C)NC(=O)CNC(=O)c1nn(-c2ccc(OC)c(Cl)c2)c(=O)c2ccccc12 (configuration not stated) | inactive
O=C(N/N=C/c1ccc2ccccc2c1)c1ccc(COc2ccc3c(c2)CCC3)o1 | inconclusive [activator, partial curve]
Cc1ccc(N=Nc2c(N)nn(-c3ccccc3)c2N)cc1 | inconclusive [activator, full curve]
Cc1cc(C=O)c(C)n1-c1cccc(C(=O)O)c1 | inactive
Cc1ccccc1NC(=O)N1CCC(NC(=O)C2CCCCC2)CC1 | inactive
COc1ccc(/C=N/NC(=O)c2ccc3c(c2)OCCO3)c(OC)c1 | inactive
O=c1c2ccccc2oc2nc(-c3ccco3)n(-c3ccccc3)c(=O)c12 | inconclusive [activator, partial curve]
Cc1ccc(CNc2cccnc2)cc1 | inconclusive [activator, partial curve]
O=C(c1ccc(=O)[nH]n1)N1CCN(S(=O)(=O)c2ccc3ccccc3c2)CC1 | inactive
Cc1cc(C(=O)N/N=C/c2sccc2C)no1 | inactive
C/C(=N\Nc1ccc([N+](=O)[O-])cc1)c1ccc2c(c1)OCO2 | inconclusive [activator, single point]
CC1Cc2nc(SCC(=O)Nc3ccc4c(c3)OCO4)n(Cc3ccccc3)c(=O)c2S1 (configuration not stated) | inconclusive [activator, single point]
Cc1ccc(C(=O)CCC2CCCCC2=O)cc1 (configuration not stated) | inconclusive [activator, partial curve]
CC1CCN(C(=O)C2CC(c3ccc(F)cc3)=NO2)CC1 (configuration not stated) | inconclusive [activator, partial curve]
Fc1cc(F)c2nc(N3CCCC3)sc2c1 | inconclusive [activator, single point]
O=C(N/N=C/c1cccc2ccccc12)c1cc(C2CC2)[nH]n1 | inactive
CCCSc1nsc(NC(=O)CCC)n1 | active: 1.41 µM
COc1nc(-c2ccc(C)cc2)ccc1-c1noc(-c2ccco2)n1 | inconclusive [activator, single point]
O=c1c2ccccc2sn1-c1ccc(F)cc1 | inconclusive [activator, single point]
CCC(C)(C)NC(=O)C(c1ccc(OC)cc1)N(C(=O)CCC(=O)Nc1cc(C)on1)c1ccc2c(c1)OCCO2 (configuration not stated) | inactive
COc1ccc(-c2coc3cc(OC)cc(OC)c3c2=O)cc1 | inconclusive [activator, partial curve]
C=CCn1c(Oc2ccc(C(=O)OC)cc2)nc2c1c(=O)n(C)c(=O)n2C | inactive
NNc1ccc(Cl)c(C(=O)O)c1 | active: 1.26 µM
CCN(CC)C(=O)Cn1cnc2sc(C(=O)N3CCN(Cc4ccc5c(c4)OCO5)CC3)c(C)c2c1=O | inactive
O=C(NC(=S)NCc1ccccc1)C1CCCCC1 | inactive

Structure (SMILES) | Potency
O=S(=O)(c1cccc(-c2csc(-c3cccnc3)n2)c1)N1CCOCC1 | inconclusive [activator, single point]
COC(=O)c1c(NC(=O)c2cccs2)sc2c1CCC(C)C2 (configuration not stated) | inconclusive [activator, partial curve]
CC(C)CN1C(=O)c2ccc(NC(=O)c3ccccc3F)cc2C1=O | inconclusive [activator, partial curve]
CC(=O)c1c(N2CCOCC2)nc2ccc(Br)cc2c1-c1ccccc1 | inactive
CSCc1ccc(C(=O)NC(C)c2cnn(-c3ccccn3)c2C)o1 (configuration not stated) | inactive
c1ccc(Cn2ccc(-c3cnc(-c4ccccc4)s3)n2)cc1 | active: 1.12 µM
COc1ccc(Cl)cc1C(=O)Nc1nnn(C)n1 | inactive
CNC(=S)N(Cc1cc2cc(OC)c(OC)cc2[nH]c1=O)C1CCCC1 | inactive
O=C(Nc1ccccc1)c1ccc(-c2ccccc2)s1 | inconclusive [activator, single point]
O=C(c1cc(-c2cccc(O)c2)on1)N1CCCCC1 | inconclusive [activator, single point]
Oc1ccccc1CNc1ccc(Br)cn1 | inconclusive [activator, single point]
CCCCCCSc1ccc([C@H]2N[C@@](C)(C(=O)OC)[C@H]3C(=O)N(C)C(=O)[C@@H]23)cc1 | inactive
S=C(NCc1ccccc1)Nc1ccc2ccccc2c1 | inconclusive [activator, single point]
O=C(O)c1c(-c2ccc(Cl)cc2)cn2ccccc12 | inconclusive [activator, single point]
COc1ccc(S(=O)(=O)c2ccc(OC)cc2)cc1 | inactive
O=C(CSc1nnc(NC(=O)c2c(F)cccc2F)s1)NCC1CCCO1 (configuration not stated) | inactive
Cc1ccc(C(=O)O/N=C(\N)c2cccc([N+](=O)[O-])c2)cc1 | active: 3.55 µM
CCN(CC)C(=O)c1c(-c2ccccc2)oc2ccc(O)cc12 | inactive
Cc1ccc(/C=N/Nc2ccc(C(=O)O)cc2)s1 | inconclusive [activator, partial curve, poor fit]
CCCCN1CCCC1CNC(=O)c1cc(C#N)c2ccccc2c1OC (configuration not stated) | inactive
Nc1nc(CSC(=S)N2CCOCC2)nc(Nc2ccc(F)cc2)n1 | inconclusive [activator, single point]
O=C(NC(=S)Nc1ccc(CN2CCOCC2)cc1)c1ccc(-c2cccc(Cl)c2)o1 | inactive
CCCCC(=O)Nc1ccc2c(c1)nc1n2CCSC1 | active: 3.55 µM
Cc1cc(C)c(C#N)c(SCc2nc3ccccc3[nH]2)n1 | inconclusive [activator, single point]
C/C(=N\Nc1nc2ccccc2[nH]1)c1cc2ccccc2o1 | inconclusive [activator, partial curve]
CC(=O)c1c(C)[nH]c(C(=O)Nc2nc(-c3ccccc3)c(C)s2)c1C | inconclusive [activator, partial curve]

Structure (SMILES) | Potency
O=C(c1ccccc1)c1cc2cc(Cl)ccc2[nH]1 | inconclusive [activator, single point]
COc1ccc2occ(C(=O)c3cccs3)c2c1 | inconclusive [activator, partial curve]
CS/C(Nc1cc(Cl)ccc1Cl)=C(/C#N)C(=O)c1ccco1 | inconclusive [activator, partial curve]
O=C(c1cccc(C(F)(F)F)c1)C1CCCN(C(=O)CN2CCCC2=O)C1 (configuration not stated) | inconclusive [activator, single point]
O=C(O)c1ccc(N/N=C/c2cc3ccccc3nc2Cl)cc1 | active: 2 µM
COc1cc(C(=O)N(c2ccc(C)c(C)c2)C2C=CS(=O)(=O)C2)cc(OC)c1OC (configuration not stated) | inactive
CCc1ccc(NC(=O)Nc2ccc3c(c2)CCC3)cc1 | inconclusive [activator, partial curve]
CC(/C=N/NC(=O)Cc1cccs1)=C\c1ccccc1 | active: 3.55 µM
CCOc1ccc2nc(NC(=O)C(CC)Sc3nc(C)cc(=O)[nH]3)sc2c1 (configuration not stated) | inconclusive [activator, partial curve]
COc1ccc(C(=O)Nc2cc(C)c(NC(=O)c3ccccn3)cn2)cc1 | inconclusive [activator, single point]
CC1CCCCN1C(=O)COC(=O)c1cc(Cl)c2c(c1)OCO2 (configuration not stated) | inconclusive [activator, single point]
CN1C(=O)[C@@H]2[C@H](C1=O)[C@@H]1C(=O)Nc3ccccc3C(=O)N1[C@@H]2c1ccc(Br)cc1 | inactive
CN(C)C(=O)c1ccc2c(c1[N+](=O)[O-])C(=O)c1ccccc1C2=O | inconclusive [activator, single point]
COc1ccc(-c2nnc3c4ccccc4c(C)nn23)cc1 | inconclusive [activator, single point]
Cc1cccc(-c2nsc(SCC(=O)N3CCCC3)n2)c1 | active: 1.41 µM
COc1ccc(NC(=S)N/C(=N/CS(=O)(=O)c2ccccc2)c2ccccc2)cc1 | inconclusive [activator, partial curve]
Cc1cnc(C(=O)Nc2ccc(F)cc2)cn1 | inconclusive [activator, partial curve]
CC(C)(C)c1ccc(-c2noc(CNC(=O)c3ccco3)n2)cc1 | inactive
O=C(C=C1SCCS1)/C=C/c1ccco1 | active: 2.51 µM
COC(=O)C(Cc1ccc(OC(=O)c2ccccc2C)cc1)N1Cc2ccccc2C1=O (configuration not stated) | inconclusive [activator, single point]
Cc1cccc(/C(N)=N/OC(=O)Cc2cccs2)c1 | inconclusive [activator, single point]
C(=N/Nc1nc(-c2ccccc2)cc(-c2ccccc2)n1)/c1cccnc1 | inactive
S=C(NCCC1=CCCCC1)NCc1ccco1 | inconclusive [activator, single point]
CCOc1ccc(NC(=O)c2ccccc2SC)cc1 | inconclusive [activator, partial curve]
COCc1ccc(CN2CCc3c([nH]c4ccccc34)C2C(C)(C)C)o1 (configuration not stated) | inconclusive [activator, single point]
